# Source: ChEMBL document CHEMBL4888484, “Replenishing the malaria drug discovery pipeline: Screening and hit evaluation of the MMV Hit Generation Library 1 (HGL1) against asexual blood stage Plasmodium falciparum ,using a nano luciferase reporter read-out” (2022)
# In all, about 150,000 compounds went through this assay and about 540 (0.36%) showed an effect of 50% or more. The list shows a part of the results.
# Tested on: Plasmodium falciparum
# Assay: Primary screen in NF54 nanoGlo assay, in single point, at 2uM, 72h; a lower Z score goes with more inhibition
# Assay type: functional, Erythrocyte
# Conditions: timepoint 72 hour
Compound,% Inhibition,Z score
Cc1cc(CNC(=O)[C@@H]2Cc3ccccc3C(=O)N2)n(C)n1,1%,-0.15
C[C@@H](CN1CCOC2(CCOCC2)C1)c1cccc(Cl)c1,-8%,0.8
O=C(O)c1csc(-n2nc3c(c2C(F)(F)F)CCCCC3)n1,-36%,4.19
OCCC1CN(Cc2ccc(Cl)cc2-n2cncn2)C1,-11%,1.57
CCn1ccnc1[C@H]1OCC[C@@H]1NS(=O)(=O)c1cccc2nsnc12,-14%,2.41
CN1CC[C@H](CNC(=O)c2cccc(N3Cc4ccccc4C3)c2)C1,-15%,1.62
NC(=O)C[C@H]1CCCN(S(=O)(=O)c2cc(C(=O)O)cc3c2CCCC3)CC1,-2%,0.24
Cc1cccc([C@@H]2CCCCN2CC(N)=O)c1C,0%,0.05
Cc1cc(C)n(-c2ccc(NC(=O)c3cc(C4CC4)nc4c3cnn4C)cc2)n1,35%,-3.97
C[C@H](NCCc1ccccc1)C(=O)NC(=O)NC1CCCCC1,3%,-0.32
O=C1C[C@H](COc2cnccn2)CN1CC1CCN(C(=O)c2n[nH]c3ccccc23)CC1,-9%,1.77
CC1CC(c2cccnc2)N(C(=O)CCc2cccc(N(C)C)c2)C1 (stereo not given),-4%,0.81
CC#CCN1CCC[C@H](S(=O)(=O)NC2CCCC2)C1,-19%,2.69
O=C(CCC1CCCC1)Nc1ccc(Cl)cn1,-15%,2.05
CCCc1nc(N[C@@H](C)Cn2cncn2)c2cnn(C)c2n1,-8%,1.65
CN(C)CC1(O)CCC2(CCN(C(=O)c3n[nH]c4c3COc3ccccc3-4)CC2)CC1,5%,-0.71
CCCC(=O)N1CCNC(=O)[C@@H]1c1c(C)nc2ccccn12,-15%,1.61
CC(C)(C)OC(=O)N1CCC[C@H]1C(=O)NCCNc1ncccn1,-4%,0.46
Cn1nc2c(c1CNC(=O)c1ccc3c(c1)OCO3)CCC2,10%,-1.22
Cn1cc(C(=O)N2CC[C@H](Oc3ccc(-c4noc(C5CC5)n4)cc3)C2)cn1,33%,-3.74
CC(C)(CCNC(=O)[C@H]1CCO[C@@H]1c1cccnc1)C(F)(F)F,-8%,1.03
COC(=O)c1cc(C)nc2c1c(=O)n(CC(=O)Nc1ccc(OC)cc1)c(=O)n2-c1ccccc1,-7%,0.89

Compound,% Inhibition,Z score
Cc1noc(C)c1CS(=O)(=O)CCc1cc(Cl)c2c(c1)OCCCO2,2%,-0.18
CC(=O)c1ccc(NCN2C(=O)C(=O)c3ccccc32)cc1,-10%,1.82
Cc1noc(C)c1S(=O)(=O)N(C)Cc1noc2c1CCCC2,-2%,0.23
CCOCCCNc1nc(C)nc2onc(C)c12,-10%,1.12
COc1ccc(Oc2c(CN(C[C@@H](O)Cc3ccccc3)C(C)C)c(-c3ccccc3)nn2C)cc1,-6%,0.81
C[C@@](NC(=O)Nc1cnn(C(F)F)c1)(c1ccccc1)C(F)(F)F,-17%,2.18
C[C@H]1CN(Cc2cnc3c(-c4ccccc4)cnn3c2)CCN1,-6%,0.99
COc1ccc([N+]2=C3CCCC(c4ccccc4)N3CC2(O)c2ccccc2)cc1 (stereo not given),-4%,0.52
C[C@@H](c1ncnn1CCc1ccccc1)N1CCN(C)CC1,-9%,0.98
CCCC(=O)N1C[C@H](c2nc(-c3ccc(F)cc3)no2)C2(CCOCC2)C1,1%,-0.2
COC(=O)N(C)CCCC(=O)Nc1ccccc1-c1ncc(C)o1,2%,-0.27
COCCN1C(=O)C[C@H](CNc2nc(N)nc3c2CCCC3)[C@H]1c1cnn(C)c1,2%,-0.4
O=C(CCC(F)(F)F)N1CC[C@@]2(CCCN(CCC3CCCCC3)C2)C1,-8%,1.11
CCCc1cc(N2CC[C@H](NS(=O)(=O)N(C)C)[C@@H](O)C2)nc(C)n1,-9%,1.44
COCCc1nsc(N2CCNC(=O)CCN(C(=O)c3ccoc3Cl)CC2)n1,-4%,0.55
O=C(Nc1ccc2c(c1)OCO2)Nc1ccn(Cc2c(F)cccc2Cl)n1,-4%,0.43
Cc1c(C)c2c(c(C)c1NC(=O)c1cc3ccccc3o1)NC(=O)CO2,33%,-3.72
O=C1NCCC1C(=O)N1CC2CCC2(Nc2nc3ccccc3o2)C1 (stereo not given),-4%,0.42
COCc1n[nH]c(-c2cccc(NC(=O)CC[C@@H]3NC(=O)c4ccccc4NC3=O)c2)n1,-11%,1.35
CN(CCC(=O)N1CCCCC1)CCc1nccs1,-3%,0.26
Cn1nccc1C1=CCN(S(=O)(=O)CCC2CCCCC2)CC1,-4%,0.64
COc1ccc(Cn2c(N)c(C(=O)NCc3ccccc3Cl)sc2=S)cc1,-4%,0.51

Compound,% Inhibition,Z score
CN(C)C(=O)NC[C@@H]1C[C@H](F)CN1C(=O)C(C)(C)Oc1ccc2c(c1)CCC2,3%,-0.66
CCc1ccc(NC(=O)Cn2cc(-c3nnc(C)o3)ccc2=O)cc1,-1%,0.12
CCCCn1ccnc1-c1cccc(NC(=O)Cc2cccnc2)c1,-8%,1.25
O=C(Nc1cccs1)N1CCC(c2nnc(-c3ccsc3)o2)CC1,-18%,2.08
Cc1cc(C(=O)NCC2C3Cc4ccccc4C23)cnn1 (stereo not given),-2%,0.19
COc1cc(N(C)Cc2nc(-c3ccccn3)no2)ncn1,-14%,1.32
Cc1nc(N[C@H]2CCCn3ncnc32)nc(C)c1CC(C)C,-11%,1.66
O=C(Nc1cc(O)cc(C(=O)O)c1)OC1CCCC1,-2%,0.27
CNC(=O)[C@H]1CCCN(C(=O)c2ccc3cncn3c2C)C1,-12%,1.07
CCc1ccc(Cn2ncnc2[C@H]2CCOC2)cc1,0%,0
Cc1cc(N(C)CC(=O)Nc2cccc(Cl)c2)ncn1,5%,-0.55
C[C@]1(O)CCC12CCN(C(=O)Cc1cccc(Cl)c1)CC2,0%,-0.03
O=C(Cn1cc(-c2ccc(F)cc2)cn1)NCc1cn(-c2ccncc2)nn1,8%,-1.03
O=C(NCc1ccc(Cl)cc1)c1cnco1,3%,-0.56
Cn1ccc(C2CCN(CC(=O)Nc3cnccn3)CC2)n1,12%,-1.37
Cc1cccc(N2CCC(NC3CCN(Cc4ccco4)CC3)CC2)c1C,-15%,1.45
C[C@@H](CCNS(=O)(=O)c1c(Cl)cc(F)cc1Br)CC(=O)O,32%,-1.75
CC(C)(C)OC(=O)NCc1cccc(NC(=O)NCc2ccoc2)c1,1%,-0.21
CC[C@](C)(Nc1ccc2c(c1)OCCO2)c1nnnn1-c1ccc(OC)cc1,-8%,1.18
O=S(=O)(c1cccc(F)c1F)N1CCC[C@H]1c1ccccn1,4%,-0.68
O=C(CN1C(=O)CCC1=O)N1CC(c2nc(-c3cccc(Cl)c3)no2)C1,-9%,1.71
O=C(NCC1CCN(c2cnsn2)CC1)c1ccccc1,-13%,1.42

Compound,% Inhibition,Z score
COCCn1c(Cc2c[nH]c3ccccc23)nnc1N1CCC[C@@H](CN2CCOCC2)C1,10%,-1.87
CCN1CCCN(C(=O)[C@@H]2CC(C(C)C)=NO2)CC1,-11%,1.38
CC(C)(O)CCc1ccc(C(=O)N2CCC(c3nnn[nH]3)CC2)cc1,-4%,0.58
CN(C(=O)c1cc(Cl)cc(F)c1N)c1cnn(C)c1,-3%,0.4
Clc1ccc2nc3c(c(Nc4ccc(Oc5ccccc5)cc4)c2c1)CCCC3,-2%,0.31
O=C(CCc1cc2n(n1)CCNC2)NCc1scnc1-c1ccccc1,-13%,1.69
Brc1cncc(N2CCC3(CC2)OCCO3)c1,-1%,0.22
Cc1cccc2nnc(N3CCN(C(=O)c4ccco4)CC3)n12,28%,-3.14
Cn1cnc2cc(-c3noc(-c4cccc(F)c4)n3)ccc21,-9%,1.4
O=C(C1=CCCCC1)N1CCC(C(=O)N2CCCCCC2)CC1,-16%,1.91
CCOc1ccc(C(=O)Nc2ccccc2-c2csc(C)n2)nn1,-11%,2.09
COc1ccc(Nc2nonc2-c2noc(NCc3ccc(OC)c(OC)c3)n2)cc1,-18%,2.26
Cn1cc(CC(=O)N(CC(=O)Nc2ccc(F)cc2)C(C)(C)C)cn1,-9%,1.28
O=C(O)C[C@@](O)(c1nccn1Cc1ccccc1)C(F)(F)F,4%,-0.57
CCN1CCn2cc(C(=O)NCCN3CCN(c4ccccc4F)CC3)nc2C1=O,10%,-1.32
C=C(C)CN(CC)C(=O)Cc1cccc(F)c1,-16%,1.72
CC(C)C(=O)N(Cc1nccn1Cc1ccc(Cl)cc1Cl)C1CCCCC1,1%,-0.1
Cc1cccc(NC(=O)Cn2nc(C(=O)N3CCOCC3)c3ccccc32)c1C,0%,0
COC1CCCN(C(=O)CC2(c3ccc(-c4ccccc4)cc3)CC(=O)N(C3CC3)C2=O)C1 (stereo not given),-5%,0.67
